Measured values reported in the RNAGym collection of RNA variant scans (doi:10.7554/elife.90254).
Read counts are not given, so values of variants with three or more changes are uncertain.

B1: LINE1-mini (parent)
chain: GGCAGAGCUCAACACAGCGUGGCAAAGUGGCUGUGGCUAGACUGCC

Variants of: B1
Experiment: self-cleavage, relative activity (ratio to wild type); higher = more cleavage; in vitro, sequencing; the parent is a self-cleaving ribozyme

Variant | self-cleavage
G30A C31U G44C C45G | 0.13
G30A C37U A41U | 0.04
G30A G33A C37U C42A | 0.08
G30A G33A G35C | 0.01
G30A G33A U38A C42A | 0.02
G30A G33U C46G | 0.07
G30A G35C C45U C46A | 0.05
G30A G40A C46U | 0.06
G30A U32A G40A | 0.31
G30A U34C G36U U38G | 0.1
G30A U34G G44A | 0.07
G30A U38A A39C | 0.46
G30A U38A U43G C46A | 0.01
G30A U38G C46G | 0.02
G30C A39U G44C | 0.02
G30C C37A A39U U43A C45G | 0.02
G30C U32G C37A A39G | 0.03
G30C U34C A39U | 0.29
G30C U34C C37G | 0.04
G30C U43G C45G | 0.12
G30U A39C A41G | 0.04
G30U C31A A39U C46G | 0.01
G30U C31A C37G C46U | 0
G30U C31A G36C C37U | 0.01

Variant | self-cleavage
G30U C31A G40C | 0.02
G30U C31U G36U | 0.03
G30U C37G G40A | 0.07
G30U C42A C46U | 0.05
G30U C42G C46U | 0.19
G30U C42G U43A | 0.01
G30U G33A C46A | 0.13
G30U G33A G35C | 0.07
G30U G33C G35C | 0.08
G30U G35A A39U | 0.04
G30U G35C C37A U38C | 0.04
G30U G36A C46A | 0.37
G30U G40U A41U | 0.12
G30U U32C G35A | 0.1
G30U U32C G35C | 0.07
G30U U34A C42G | 0
G30U U34A C45A | 0.03
G30U U34A G35C C37U | 0.07
G30U U34C C45A | 0.03
G30U U43A C45A | 0.01
C31A C37U C45A | 0.04
C31A C42U U43G | 0.1
C31A C45A C46G | 0.05
C31A G33U G35A A39C U43C | 0.04

Variant | self-cleavage
C31A G33U G40A | 0.08
C31A G35A U43C | 0.01
C31A G36A C37A | 0.1
C31A G36U C42G | 0.03
C31A G36U U38A | 0.09
C31A U32C U38A | 0.01
C31A U38A C42U | 0.14
C31A U38C G44C | 0.02
C31A U43C C45G | 0
C31G A39C G40A | 0.11
C31G A41G C45G | 0.01
C31G C37A U43C | 0.02
C31G C37G U43A G44A | 0.01
C31G G33A G40C | 0.02
C31G G33U G35A C45U | 0.05
C31G G36A A39C | 0.03
C31G G36A A39U G44C | 0.03
C31G G36C U43A | 0
C31G G40A C46A | 0
C31G U32G C37A | 0.02
C31G U34A A41C | 0.02
C31G U34A G40U | 0.03
C31G U38G A39G | 0.02
C31G U38G C42U | 0.02

Variant | self-cleavage
C31G U43C C45A | 0.04
C31U A41G C45A C46A | 0.03
C31U C37A C46U | 0.01
C31U C42A U43A | 0.05
C31U C42U C46A | 0.35
C31U C45U C46A | 0.1
C31U G33A U34C | 0.18
C31U G33U C42U | 0.11
C31U G33U G40A | 0.01
C31U G35A G36C C37U | 0.11
C31U G35C A41C | 0.03
C31U G35U A39G | 0.02
C31U G40C C45A C46G | 0.02
C31U G40U A41U C42U | 0.02
C31U U32A C37U | 0.06
C31U U32G G40A | 0.02
C31U U32G U38C C42G G44U | 0
C31U U38A C42A | 0.1
C31U U38C C45A | 0.07
U32A A39G C42A C45A | 0.03
U32A C42A C45A | 0.12
U32A C42A U43C | 0.06
U32A G33C C45U | 0.03
U32A G33C C46A | 0.05

Variant | self-cleavage
U32A G33C G44U | 0.05
U32A G35A C45U | 0.05
U32A G35U A41G | 0.05
U32A G36U C46A | 0.19
U32A G40C G44A C46U | 0.02
U32A G44C C46U | 0.06
U32A U34G C42G | 0.02
U32A U34G G36C | 0.12
U32C A39U A41U G44U C46U | 0.01
U32C C37A C46U | 0.06
U32C C37A G44U | 0.02
U32C G35U A41G C42A | 0.03
U32C G40A C46A | 0.07
U32C U34G C46G | 0
U32C U34G U38G G44C | 0.01
U32C U38A G44C | 0.04
U32C U38G C45G | 0.01
U32G A39G U43G | 0.02
U32G C37A G44A | 0.05
U32G C42G U43G | 0.12
U32G G33A U34A C46G | 0.03
U32G G33U C37U U38C | 0.03
U32G G35C G44U C46G | 0.05
U32G U34A A39G C46A | 0

Variant | self-cleavage
U32G U38A U43C | 0.01
G33A C37U A41U C46G | 0.07
G33A G35C G36C U38C A39G | 0.02
G33A G35U C45G C46U | 0.04
G33A G40A C45G | 0.04
G33A G40A C46G | 0.05
G33A G40U U43A | 0.14
G33A U34A C37U | 0
G33A U38A G40A | 0.04
G33C A39G U43G | 0.01
G33C C37A U38G | 0.01
G33C C42G G44C C46A | 0
G33C C45A C46U | 0.06
G33C G40U G44U C45A | 0.02
G33C U34A C45A | 0.02
G33C U34C C46G | 0.15
G33C U34G C37U | 0.02
G33U G36U C37A C45U | 0.02
G33U U34A C42U | 0.08
G33U U38G C42A U43C G44A | 0.02
G33U U43C G44A | 0.05
U34A A39G C45G | 0.03
U34A A39G G44A | 0.03
U34A A41U C42A | 0.07

Variant | self-cleavage
U34A C37A C45A | 0.01
U34A C42G G44A | 0.01
U34A G35C U38C | 0.01
U34A G35U G36U U38G | 0.02
U34A G36U U43C C45U | 0.03
U34A U38A C42A | 0.04
U34A U38A C45U | 0.02
U34C A41G G44C | 0.06
U34C C37U C45G C46G | 0.08
U34C C42A C46G | 0.05
U34C C45G C46U | 0.06
U34C G35A C46A | 0.1
U34C G36U C46A | 0.03
U34C G40U C45A | 0.09
U34C G40U C45G | 0.02
U34C G40U C46G | 0.24
U34C G44C C45A | 0.05
U34G A39G C46A | 0.01
U34G A39G U43C | 0.02
U34G C37A G44A | 0.01
U34G C42A C45A | 0.01
U34G G40C A41U C45A | 0.04
U34G U43G C45G | 0.02
